Laboratory results taken from the antibiotic and cytotoxicity screens of Wong et al. (2023).
The list shows a part of the results.

These compounds were tested on HepG2 (assay: cytotoxicity call (relative viability < 0.9)). Conditions: 10 µM.

Row | SMILES | cytotoxicity call
1 | C[C@@H]1CN([C@H](C)CO)C(=O)c2cc(NC(=O)Nc3cccc4ccccc34)ccc2O[C@@H](C)CCCCO[C@H]1CN(C)C(=O)Nc1ccc(C(F)(F)F)cc1 | inactive
2 | C[C@H](CO)N1C[C@H](C)[C@@H](CN(C)S(=O)(=O)c2cccs2)Oc2ccc(NC(=O)CCCN(C)C)cc2C1=O | inactive
3 | CN1CCN(C(=O)C[C@@H]2CC[C@@H]3[C@H](COc4ccc(NC(=O)c5ccc(F)c(F)c5)cc4C(=O)N3C)O2)CC1 | inactive
4 | Cc1noc(C)c1NC(=O)N(C)C[C@@H]1Oc2ccc(NC(=O)CCCN(C)C)cc2C(=O)N([C@H](C)CO)C[C@H]1C | inactive
5 | C[C@@H]1CCCCO[C@@H](CN(C)C(=O)Nc2ccc(C(F)(F)F)cc2)[C@H](C)CN([C@H](C)CO)C(=O)c2cc(NS(=O)(=O)c3cn(C)cn3)ccc2O1 | inactive
6 | Cc1ccc(S(=O)(=O)N(C)C[C@@H]2OCCCC[C@H](C)Oc3ccc(NC(=O)Nc4c(C)noc4C)cc3C(=O)N([C@H](C)CO)C[C@H]2C)cc1 | inactive
7 | CCCNC(=O)N(C)C[C@H]1Oc2cc(C#Cc3ccccn3)ccc2S(=O)(=O)N([C@@H](C)CO)C[C@H]1C | inactive
8 | O=C1c2c(O)cccc2C(C2OC(CO)C(O)C(O)C2O)c2cc(CO)cc(O)c21 (stereo not drawn) | active
9 | CN1[C@@H]2Cn3c(ccc(-c4ccccc4)c3=O)[C@H]1[C@@H](C(=O)NCCCN1CCOCC1)[C@@H]2CO | inactive
10 | Cc1ccc(S(=O)(=O)N(C)C[C@H]2Oc3ccc(NC(=O)NC(C)C)cc3CC(=O)N([C@H](C)CO)C[C@H]2C)cc1 | inactive
11 | C[C@H](CO)N1C[C@H](C)[C@H](CN(C)S(=O)(=O)c2ccc(F)cc2)Oc2c(NC(=O)C3CC3)cccc2C1=O | inactive
12 | COc1ccc(CN(C)C[C@H]2OCCCC[C@H](C)Oc3ccc(NC(=O)CCC(F)(F)F)cc3C(=O)N([C@@H](C)CO)C[C@@H]2C)cc1 | inactive
13 | C[C@@H]1CN([C@@H](C)CO)C(=O)c2cc(NS(=O)(=O)c3ccc(F)cc3)ccc2O[C@@H](C)CCCCO[C@@H]1CN(C)CC1CCCCC1 | inactive
14 | NCc1ccccc1-n1cncn1 | inactive
15 | Cc1noc(C)c1S(=O)(=O)Nc1ccc2c(c1)CC(=O)N([C@@H](C)CO)C[C@@H](C)[C@H](CN(C)C(=O)Nc1ccccc1)O2 | inactive
16 | C[C@@H]1CN([C@@H](C)CO)S(=O)(=O)c2ccc(C3=CCCC3)cc2O[C@@H]1CN(C)S(=O)(=O)c1ccc(F)cc1 | inactive
17 | CC(C)[C@@H](O)C[C@@H](C)O[C@@H]1O[C@H](CO[C@@H]2OC[C@](O)(CO)[C@H]2O)[C@@H](O)[C@H](O)[C@H]1O | inactive
18 | O=c1cc(-c2ccccc2)oc2cc(O)ccc12 | inactive
19 | CN(C)C(=O)C[C@H]1CC[C@@H](NC(=O)C2CC2)[C@H](CO)O1 | inactive
20 | CCOC(=O)OC[C@@H]1[C@@H]2NC(=O)N(C)[C@@]1(COC(=O)NCCCCCC(=O)NO)Oc1ccccc12 | inactive
21 | C[C@@H]1CN([C@@H](C)CO)C(=O)c2cc(C#CCc3ccccc3)cnc2O[C@@H]1CN(C)C(=O)C1CCOCC1 | inactive
22 | Cc1cccc(C(=O)NN)c1 | inactive
23 | C[C@H](CO)N1C[C@H](C)[C@@H](CN(C)Cc2ccccn2)Oc2ncc(C#Cc3cccc(F)c3)cc2C1=O | inactive
24 | C[C@H]1CN([C@@H](C)CO)C(=O)Cc2cc(NC(=O)Nc3ccc(C(F)(F)F)cc3)ccc2O[C@H]1CN(C)Cc1ccccc1 | active
25 | C[C@H](CO)N1C[C@H](C)[C@H](CN(C)Cc2ccc3c(c2)OCO3)OCCCC[C@H](C)Oc2ccc(NC(=O)Nc3ccc(F)cc3)cc2C1=O | inactive
26 | C[C@@H]1CN([C@H](C)CO)C(=O)c2cc(NC(=O)Nc3ccc(F)cc3)ccc2O[C@H]1CN(C)Cc1ccc(-c2ccccc2)cc1 | inactive
27 | O=C(O)[C@H]1O[C@@H](Oc2c(-c3ccc(O)cc3)oc3cc(O)cc(O)c3c2=O)[C@H](O)[C@@H](O)[C@@H]1O | inactive
28 | C[C@@H]1CN([C@@H](C)CO)C(=O)c2cccc(NC(=O)CCCCCC(=O)Nc3ccccc3N)c2O[C@H]1CN(C)Cc1ccc(C(F)(F)F)cc1 | inactive

The compounds below were run on S. aureus RN4220 (assay: growth inhibition call (relative growth <= 0.2)). Conditions: 50 µM.

Row | SMILES | growth inhibition call
29 | C[C@@H]1CCCCO[C@@H](CN(C)S(=O)(=O)c2ccc(F)cc2)[C@@H](C)CN([C@H](C)CO)C(=O)c2cc(NC(=O)c3ccccc3)ccc2O1 | inactive
30 | C[C@H](CO)N1C[C@H](C)[C@H](CN(C)C(=O)Nc2ccccc2)Oc2ncc(-c3cccc(C(F)(F)F)c3)cc2C1=O | inactive
31 | C[C@H]1CN([C@@H](C)CO)C(=O)c2cc(NC(=O)NC3CCCCC3)ccc2O[C@H]1CN(C)Cc1ccc(Oc2ccccc2)cc1 | inactive
32 | CCOC(=O)Nc1c[n+](N2CCOCC2)no1 | inactive
33 | C[C@H]1CN([C@@H](C)CO)C(=O)c2ccccc2-c2ccccc2CO[C@H]1CN(C)C(=O)Nc1cccc(F)c1 | inactive
34 | CCOC(=O)c1nnn(-c2nonc2N)c1CN1CCSCC1 | inactive
35 | CC(C)NC(=O)N(C)C[C@H]1Oc2ccc(NC(=O)Cc3ccccc3)cc2C(=O)N([C@@H](C)CO)C[C@H]1C | inactive
36 | COc1ccc([Si](C)(C)[C@@H]2[C@@H](CCn3cc([C@H](O)c4ccccc4)nn3)O[C@]3(C(=O)N(Cc4ccc(N5CCOC5=O)cc4)c4ccccc43)[C@H]2C)cc1 | inactive
37 | C[C@H]1CCCCO[C@H](CN(C)S(=O)(=O)c2ccccc2)[C@@H](C)CN([C@@H](C)CO)C(=O)c2cc(NS(=O)(=O)c3cn(C)cn3)ccc2O1 | inactive
38 | CCCNC(=O)Cc1nnc[nH]1 | inactive
39 | C[C@H]1CN([C@@H](C)CO)C(=O)Cc2cc(NS(=O)(=O)c3cccs3)ccc2O[C@H]1CN(C)S(=O)(=O)c1cccs1 | inactive
40 | Cc1noc(C)c1S(=O)(=O)Nc1ccc2c(c1)C(=O)N([C@H](C)CO)C[C@H](C)[C@@H](CN(C)C(=O)Nc1ccc(C(F)(F)F)cc1)OCCCC[C@@H](C)O2 | inactive
41 | C[C@@H]1CN([C@H](C)CO)C(=O)c2cc(NC(=O)Nc3cccc4ccccc34)ccc2O[C@@H](C)CCCCO[C@H]1CN(C)C(=O)Nc1ccc(C(F)(F)F)cc1 | inactive
42 | C[C@H](CO)N1C[C@H](C)[C@@H](CN(C)S(=O)(=O)c2cccs2)Oc2ccc(NC(=O)CCCN(C)C)cc2C1=O | inactive
43 | CN1CCN(C(=O)C[C@@H]2CC[C@@H]3[C@H](COc4ccc(NC(=O)c5ccc(F)c(F)c5)cc4C(=O)N3C)O2)CC1 | inactive
44 | Cc1noc(C)c1NC(=O)N(C)C[C@@H]1Oc2ccc(NC(=O)CCCN(C)C)cc2C(=O)N([C@H](C)CO)C[C@H]1C | inactive
45 | C[C@@H]1CCCCO[C@@H](CN(C)C(=O)Nc2ccc(C(F)(F)F)cc2)[C@H](C)CN([C@H](C)CO)C(=O)c2cc(NS(=O)(=O)c3cn(C)cn3)ccc2O1 | inactive
46 | Cc1ccc(S(=O)(=O)N(C)C[C@@H]2OCCCC[C@H](C)Oc3ccc(NC(=O)Nc4c(C)noc4C)cc3C(=O)N([C@H](C)CO)C[C@H]2C)cc1 | inactive
47 | CCCNC(=O)N(C)C[C@H]1Oc2cc(C#Cc3ccccn3)ccc2S(=O)(=O)N([C@@H](C)CO)C[C@H]1C | inactive
48 | O=C1c2c(O)cccc2C(C2OC(CO)C(O)C(O)C2O)c2cc(CO)cc(O)c21 (stereo not drawn) | inactive

Row | SMILES | growth inhibition call
49 | CN1[C@@H]2Cn3c(ccc(-c4ccccc4)c3=O)[C@H]1[C@@H](C(=O)NCCCN1CCOCC1)[C@@H]2CO | inactive
50 | Cc1ccc(S(=O)(=O)N(C)C[C@H]2Oc3ccc(NC(=O)NC(C)C)cc3CC(=O)N([C@H](C)CO)C[C@H]2C)cc1 | inactive
51 | C[C@H](CO)N1C[C@H](C)[C@H](CN(C)S(=O)(=O)c2ccc(F)cc2)Oc2c(NC(=O)C3CC3)cccc2C1=O | inactive
52 | COc1ccc(CN(C)C[C@H]2OCCCC[C@H](C)Oc3ccc(NC(=O)CCC(F)(F)F)cc3C(=O)N([C@@H](C)CO)C[C@@H]2C)cc1 | inactive
53 | C[C@@H]1CN([C@@H](C)CO)C(=O)c2cc(NS(=O)(=O)c3ccc(F)cc3)ccc2O[C@@H](C)CCCCO[C@@H]1CN(C)CC1CCCCC1 | inactive
54 | NCc1ccccc1-n1cncn1 | inactive
55 | Cc1noc(C)c1S(=O)(=O)Nc1ccc2c(c1)CC(=O)N([C@@H](C)CO)C[C@@H](C)[C@H](CN(C)C(=O)Nc1ccccc1)O2 | inactive
56 | C[C@@H]1CN([C@@H](C)CO)S(=O)(=O)c2ccc(C3=CCCC3)cc2O[C@@H]1CN(C)S(=O)(=O)c1ccc(F)cc1 | inactive
57 | CC(C)[C@@H](O)C[C@@H](C)O[C@@H]1O[C@H](CO[C@@H]2OC[C@](O)(CO)[C@H]2O)[C@@H](O)[C@H](O)[C@H]1O | inactive
58 | O=c1cc(-c2ccccc2)oc2cc(O)ccc12 | inactive
59 | CN(C)C(=O)C[C@H]1CC[C@@H](NC(=O)C2CC2)[C@H](CO)O1 | inactive
60 | CCOC(=O)OC[C@@H]1[C@@H]2NC(=O)N(C)[C@@]1(COC(=O)NCCCCCC(=O)NO)Oc1ccccc12 | inactive
61 | C[C@@H]1CN([C@@H](C)CO)C(=O)c2cc(C#CCc3ccccc3)cnc2O[C@@H]1CN(C)C(=O)C1CCOCC1 | inactive
62 | Cc1cccc(C(=O)NN)c1 | inactive
63 | C[C@H](CO)N1C[C@H](C)[C@@H](CN(C)Cc2ccccn2)Oc2ncc(C#Cc3cccc(F)c3)cc2C1=O | inactive
64 | C[C@H]1CN([C@@H](C)CO)C(=O)Cc2cc(NC(=O)Nc3ccc(C(F)(F)F)cc3)ccc2O[C@H]1CN(C)Cc1ccccc1 | inactive
65 | C[C@H](CO)N1C[C@H](C)[C@H](CN(C)Cc2ccc3c(c2)OCO3)OCCCC[C@H](C)Oc2ccc(NC(=O)Nc3ccc(F)cc3)cc2C1=O | inactive
66 | C[C@@H]1CN([C@H](C)CO)C(=O)c2cc(NC(=O)Nc3ccc(F)cc3)ccc2O[C@H]1CN(C)Cc1ccc(-c2ccccc2)cc1 | inactive
67 | O=C(O)[C@H]1O[C@@H](Oc2c(-c3ccc(O)cc3)oc3cc(O)cc(O)c3c2=O)[C@H](O)[C@@H](O)[C@@H]1O | inactive
68 | C[C@@H]1CN([C@@H](C)CO)C(=O)c2cccc(NC(=O)CCCCCC(=O)Nc3ccccc3N)c2O[C@H]1CN(C)Cc1ccc(C(F)(F)F)cc1 | inactive
